According to patent publication EP4685153A1 (priority 2023, dated 2024):
pIC50: −log10 of the molar value. Read-outs that look alike come from different tables or passages of the source. Residues, ends and D or L forms follow the SMILES beside them. *: point of attachment. Succinyl(4-O-cholesteryl) = CC(C)CCC[C@@H](C)[C@H]1CC[C@H]2[C@@H]3CC=C4C[C@@H](OC(=O)CCC(=O)*)CC[C@]4(C)[C@H]3CC[C@]12C

How the values were obtained:
[1] = test system: replicative HIV-1 strain 89.6; conditions: for inhibitory activity higher than that of the T20, 89.6: TZM-bl cells, versus T20; for pIC50: replicative strain 89.6, 48 h
[2] = test system: replicative HIV-1 strain LAI.2; conditions: for inhibitory activity higher than that of the T20, LAI.2: MT-4 cells, versus T20
Protocol: (§1) The cells were further washed once with RPMI-1640 culture medium at 200 µl/well, and then RPMI-1640 complete culture medium at 200 µl/well was add to culture the cells. • (3) On the fourth day, the 96-well plate was centrifuged at room temperature at 200 g for 5 min, and the supernatant was taken at 30 µl/well and transferred into a new 96-well plate, to which 1% Triton-X100 solution was added at 120 µl/well for inactivating the viruses. Positive control wells and the initial concentration were used for P24 antigen quantification to determine the dilution factor.. The P24 antigen quantification was performed according to the operating method as described in the specification of the kit, using a 96-well microplate reader for measurement. Then, each culture supernatant was diluted to an appropriate concentration to conduct the P24 antigen quantitative assay. The inhibition curve for each drug was fitted by using the four-parameter logistic equation in non-linear regression analysis and the IC50 values were calculated.

[3] = test system: replicative HIV-1 strain SG3.1; conditions: for inhibitory activity higher than that of the T20, SG3.1: MT-4 cells, versus T20
Protocol: as §1

[4] = test system: replicative HIV-1 strain 89.6; conditions: for inhibitory activity higher than that of the T20, 89.6: MT-4 cells, versus T20; for pIC50: replicative strain 89.6
Protocol: as §1

| Compound | inhibitory activity higher than that of the T20, 89.6 [1] [folds] | pIC50 [1] | inhibitory activity higher than that of the T20, LAI.2 [2] [folds] | inhibitory activity higher than that of the T20, SG3.1 [3] [folds] | inhibitory activity higher than that of the T20, 89.6 [4] [folds] | pIC50 [4] | pIC50 ([2]; replicative strain LAI.2) | pIC50 ([3]; replicative strain SG3.1) |
| --- | --- | --- | --- | --- | --- | --- | --- | --- |
| CC[C@H](C)[C@H](NC(=O)[C@H](CCCCN)NC(=O)[C@H](CCCCN)NC(=O)[C@H](CCC(=O)O)NC(=O)[C@H](CC(C)C)NC(=O)[C@H](CCC(=O)O)NC(=O)[C@H](CCC(=O)O)NC(=O)[C@H](CC(C)C)NC(=O)[C@H](CCC(=O)O)NC(=O)[C@H](CCCCN)NC(=O)[C@H](CCC(=O)O)NC(=O)[C@H](Cc1ccc(O)cc1)NC(=O)[C@H](CCC(=O)O)NC(=O)[C@H](CCC(=O)O)NC(=O)[C@H](Cc1ccc(O)cc1)NC(=O)[C@H](CCC(=O)O)NC(C)=O)C(=O)N[C@@H](CCC(=O)O)C(=O)N[C@@H](CCC(=O)O)C(=O)N[C@@H](CC(C)C)C(=O)N[C@@H](CC(C)C)C(=O)N[C@@H](CCCCN)C(=O)N[C@@H](CCCCN)C(=O)N[C@@H](C)C(=O)N[C@@H](CCC(=O)O)C(=O)N[C@@H](CCC(=O)O)C(=O)N[C@@H](CCC(N)=O)C(=O)N[C@@H](CCC(N)=O)C(=O)N[C@@H](CCCCN)C(=O)N[C@@H](CCCCN)C(=O)N[C@@H](CC(N)=O)C(=O)N[C@@H](CCC(=O)O)C(=O)N[C@@H](C)C(=O)N[C@@H](C)C(=O)N[C@@H](C)C(=O)N[C@@H](CCCCN)C(=O)N[C@@H](CCCCNC(=O)CCC(=O)O[C@H]1CC[C@@]2(C)C(=CC[C@H]3[C@@H]4CC[C@H]([C@H](C)CCCC(C)C)[C@@]4(C)CC[C@@H]32)C1)C(N)=O [LP-127] (Ac-EYEEYEKELEELEKKIEELLKKAEEQQKKNEAAAKK(Succinyl(4-O-cholesteryl))-NH2) | 1743 | 11.04 | 2762 | 1643 | 3311 | 11.84 |  |  |
| CC[C@H](C)[C@H](NC(=O)[C@H](CCCCN)NC(=O)[C@H](CCCCN)NC(=O)[C@H](CCC(=O)O)NC(=O)[C@H](CC(C)C)NC(=O)[C@H](CCC(=O)O)NC(=O)[C@H](CCC(=O)O)NC(=O)[C@H](CC(C)C)NC(=O)[C@H](CCC(=O)O)NC(=O)[C@H](CCCCN)NC(=O)[C@H](CCC(=O)O)NC(=O)[C@H](Cc1ccc(O)cc1)NC(=O)[C@H](CCC(=O)O)NC(C)=O)C(=O)N[C@@H](CCC(=O)O)C(=O)N[C@@H](CCC(=O)O)C(=O)N[C@@H](CC(C)C)C(=O)N[C@@H](CC(C)C)C(=O)N[C@@H](CCCCN)C(=O)N[C@@H](CCCCN)C(=O)N[C@@H](C)C(=O)N[C@@H](CCC(=O)O)C(=O)N[C@@H](CCC(=O)O)C(=O)N[C@@H](CCC(N)=O)C(=O)N[C@@H](CCC(N)=O)C(=O)N[C@@H](CCCCN)C(=O)N[C@@H](CCCCN)C(=O)N[C@@H](CC(N)=O)C(=O)N[C@@H](CCC(=O)O)C(=O)N[C@@H](C)C(=O)N[C@@H](C)C(=O)N[C@@H](C)C(=O)N[C@@H](CCCCN)C(=O)N[C@@H](CCCCNC(=O)CCC(=O)O[C@H]1CC[C@@]2(C)C(=CC[C@H]3[C@@H]4CC[C@H]([C@H](C)CCCC(C)C)[C@@]4(C)CC[C@@H]32)C1)C(N)=O [LP-128] (Ac-EYEKELEELEKKIEELLKKAEEQQKKNEAAAKK(Succinyl(4-O-cholesteryl))-NH2) | 1851 | 11.07 | 9322 | 2834 | 5785 |  |  |  |
| Enfuvirtide |  | 7.80 |  |  |  | 8.32 | 9.13 | 8.95 |
